From PubChem BioAssay AID624171 (National Center for Advancing Translational Sciences (NCATS), 2012)
In all, about 410,000 compounds went through this assay and about 1,200 (0.29%) were called active. The inconclusive results got no clear call from the source; some entries with a clear call stand among them for comparison. Calls follow the shape of the dose curve; as a rule, active = well fitted activation curve with a large enough effect; inconclusive = small, poorly fitted or top-dose-only effect; inactive = flat fitted curve, though single readings scatter. Potencies beside an inconclusive call are fits to weak or partial responses and may not hold up.

assay: qHTS of Nrf2 Activators; conditions: AREc32 ARE-luciferase reporter (MCF7-derived line), luminescence, 24 h; series mostly up to 46.1 µM; also: nearly all actives have a fitted effect of over 65% in size
Procedure, shortened: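 Quantitative high-throughput format: AREc32 reporter cells, 1000 per well, received compound by pin transfer and were incubated 24 hr at 37 deg C, 5% CO2, before Steady-Glo luminescence detection.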
Potency is read from the fitted curve at half-maximal effect; tags tell the direction and shape of the fitted curve.

Q: With `CCOc1ccc(NC(=O)[C@@H]2CCCN2C(=O)c2cccs2)cc1S(=O)(=O)N1CCCCC1` as the compound, how does the Potency read?
A: inactive

Q: Which Potency does the source give for `COc1ccc(C=O)cc1OS(=O)(=O)c1ccccc1[N+](=O)[O-]` here?
A: inconclusive: 7.08 µM [activator, full curve]

Q: With `O=C(CCS(=O)(=O)c1ccccc1)Nc1nc(-c2cccs2)cs1` as the compound, how does the Potency read?
A: inconclusive: 3.16 µM [activator, partial curve, poor fit]

Q: With `CC(=O)C1=C(S(=O)(=O)c2ccc(C)cc2)CS(=O)(=O)C1` as the compound, how does the Potency read?
A: inconclusive: 31.6 µM [activator, single point]

Q: Which Potency does the source give for `Cc1ccc([N+](=O)[O-])c(OCc2ncc(Cl)n2C)c1` here?
A: inconclusive: 5.62 µM [activator, full curve]

Q: With `Cc1ccc(OCc2csc(N)n2)cc1` as the compound, how does the Potency read?
A: inactive

Q: For `COc1cc(OC)cc(-c2nnc(NC(=O)CCS(=O)(=O)c3ccc(F)cc3)o2)c1`, which Potency is on record?
A: inconclusive: 22.4 µM [activator, single point]

Q: With `Cc1cc(Br)cn2c(Cc3ccsc3)c(-c3ccco3)nc12` as the compound, how does the Potency read?
A: active: 7.08 µM

Q: For `COc1ccc(CN2CSC(=S)N(Cc3ccc(OC)cc3)C2)cc1`, which Potency is on record?
A: inconclusive: 20 µM [activator, single point]

Q: With `Cc1ccc(S/C=C\C(=O)c2ccccc2)cc1` as the compound, how does the Potency read?
A: inconclusive: 3.55 µM [activator, single point]

Q: With `COc1cccc(NC(=O)CSc2c3c(nc4ccccc24)CCCC3)c1` as the compound, how does the Potency read?
A: inconclusive: 22.4 µM [activator, single point]

Q: Which Potency does the source give for `Cc1ccc(-c2nnc3c4ccccc4c(C)nn23)cc1S(=O)(=O)N1CCN(CCO)CC1` here?
A: inconclusive: 14.1 µM [activator, partial curve]

Q: With `Cc1cc(O)ccc1-c1cc(C(=O)NCc2ccc(F)cc2)[nH]n1` as the compound, how does the Potency read?
A: inactive

Q: With `Cn1c(=O)[nH]c(=O)c2c1nc(Br)n2C/C=N/NC(=O)c1ccccc1` as the compound, how does the Potency read?
A: inconclusive: 14.1 µM [activator, single point]

Q: For `Cc1cc(Nc2ccc(Br)c(C)c2)n2nc(-c3ccco3)nc2n1`, which Potency is on record?
A: inactive

Q: With `O=C(CSc1nnnn1-c1ccc2c(c1)OCCO2)Nc1nc2c(s1)CCCC2` as the compound, how does the Potency read?
A: inactive

Q: Which Potency does the source give for `CCC(C)NC(=O)c1c(C)oc2nc(C)nc(N3CCOCC3)c12` (stereo not drawn) here?
A: inactive

Q: For `Cc1ccc(Nc2nc(-c3ccc(O)cc3O)cs2)nc1`, which Potency is on record?
A: inconclusive: 12.6 µM [activator, single point]

Q: With `N#Cc1ccc(NC(=O)COCc2cc(-c3ccco3)on2)cc1` as the compound, how does the Potency read?
A: inconclusive: 8.91 µM [activator, partial curve]

Q: For `Cc1ccc(NS(=O)(=O)c2ccc(C(=O)N3CCN(S(=O)(=O)c4ccccc4)CC3)cc2)cc1`, which Potency is on record?
A: inactive

Q: For `CN(C)S(=O)(=O)c1cccc(NC(=O)c2ccc(S(=O)(=O)N3CCCCC3)cc2)c1`, which Potency is on record?
A: inactive

Q: With `N/C(=N\OC(=O)c1cccc(Cl)c1)c1cccnc1` as the compound, how does the Potency read?
A: inconclusive: 11.2 µM [activator, partial curve, poor fit]

Q: With `Cc1ccc(NC(=O)/C=C/c2ccco2)cc1F` as the compound, how does the Potency read?
A: inconclusive: 12.6 µM [activator, partial curve, poor fit]

Q: Which Potency does the source give for `Cn1c(-c2ccc3ccccc3n2)nc2cnccc21` here?
A: inconclusive: 4.47 µM [activator, partial curve, poor fit]

Q: With `Cn1nnnc1Sc1ncnc2scc(-c3ccccc3)c12` as the compound, how does the Potency read?
A: inconclusive: 3.55 µM [activator, partial curve, poor fit]

Q: For `COc1cc(/C=C(\C#N)c2ccccn2)cc(OC)c1O`, which Potency is on record?
A: active: 12.6 µM

Q: For `COC(=O)C=C1CCC2C3CCC4=CC(=O)C(Br)CC4(C)C3C(=O)CC12C` (stereo not drawn), which Potency is on record?
A: inconclusive: 17.8 µM [activator, single point]

Q: With `COC(=O)N1C(=O)[C@](c2ccc(OC)cc2)(C(C)C)N1C(=O)OC` as the compound, how does the Potency read?
A: inconclusive: 14.1 µM [activator, single point]

Q: With `Cc1ccc(SSc2cc(C)ccc2N)c(N)c1` as the compound, how does the Potency read?
A: inactive

Q: With `C=CCNc1nc(-c2ccc(Cl)cc2)cs1` as the compound, how does the Potency read?
A: inconclusive: 14.1 µM [activator, single point]

Q: With `Cc1ccccc1CNC(=O)CCC(=O)N1CCSc2ccccc21` as the compound, how does the Potency read?
A: inactive

Q: For `O=C(Nc1ccc(F)cc1)/C(Cl)=C/c1ccccc1`, which Potency is on record?
A: inconclusive: 17.8 µM [activator, partial curve, poor fit]

Q: For `O=C(CSc1ccc(-c2ccco2)nn1)N1CCCCC1`, which Potency is on record?
A: inconclusive: 3.98 µM [activator, partial curve, poor fit]

Q: With `CCc1cc2c(cc3c(=O)n(CC(=O)N4CCN(c5cccc(C)c5C)CC4)nc(CC)n32)s1` as the compound, how does the Potency read?
A: inactive

Q: For `COc1ccc(/C=C/c2cc(C(F)(F)F)[nH]c(=O)n2)cc1OC`, which Potency is on record?
A: inconclusive: 12.6 µM [activator, single point]

Q: Which Potency does the source give for `Cc1cccc(NC(=O)N2CCC(N3CCN(Cc4ccccc4)C(=O)C3=O)CC2)c1C` here?
A: inactive

Q: With `CCOC(=O)C(=Cc1ccccc1OC)C(=O)OCC` as the compound, how does the Potency read?
A: inconclusive: 3.98 µM [activator, full curve]

Q: Which Potency does the source give for `CCOC(=O)COc1ccc(C)cc1C(=O)c1ccn2nc(-c3ccc(Cl)cc3)cc2n1` here?
A: inactive

Q: For `C[C@]12CCC3C(CC[C@H]4CC(O)CC[C@]34C)C1CC/C2=N/NC(=O)c1ccncc1` (stereo partly drawn), which Potency is on record?
A: inactive

Q: With `O=C(O)CCCCCn1c(O)c(C=C2N=c3ccccc3=N2)sc1=S` as the compound, how does the Potency read?
A: inconclusive: 15.8 µM [activator, partial curve, poor fit]

Q: For `CCOCCCNC(=O)C(c1ccccc1)N1Cc2ccccc2C1=O` (stereo not drawn), which Potency is on record?
A: inactive

Q: For `COc1ccc2c(c1)CC(C1(O)C(=O)Nc3ccccc31)C2=O` (stereo not drawn), which Potency is on record?
A: inactive

Q: For `Nc1ccc(NC(=O)NC2CCCCC2)cc1`, which Potency is on record?
A: inactive

Q: With `COC(=O)c1ccccc1NC(=O)c1cccc(COc2ccccc2Cl)c1` as the compound, how does the Potency read?
A: inactive

Q: For `O=C1Nc2ccccc2S/C1=C/c1cccs1`, which Potency is on record?
A: inconclusive: 7.08 µM [activator, partial curve, poor fit]

Q: With `O=C(Nc1c(Cl)cc(Cl)cc1-c1nc2ccccc2s1)c1ccc(Br)o1` as the compound, how does the Potency read?
A: inactive

Q: With `Oc1cccc2ccc(/C=C/c3ccccc3Br)nc12` as the compound, how does the Potency read?
A: active: 10 µM

Q: For `N#C/C(=C\c1ccc(-c2ccccc2[N+](=O)[O-])o1)C(=O)N1CCOCC1`, which Potency is on record?
A: inconclusive: 12.6 µM [activator, partial curve, poor fit]

Q: For `COc1nc2ccc(C)cc2cc1-c1noc(-c2ccccc2)n1`, which Potency is on record?
A: inconclusive: 2.82 µM [activator, full curve, poor fit]

Q: With `O=C(NNC(=S)Nc1ccccc1)c1cccc(Br)c1` as the compound, how does the Potency read?
A: inconclusive: 35.5 µM [activator, partial curve, poor fit]

Q: Which Potency does the source give for `COc1ccc([N+](=O)[O-])cc1NC(=O)CSc1ccc2ccccc2c1` here?
A: inconclusive: 10 µM [activator, partial curve]

Q: For `CN1CCN(C(=O)CSc2nc(-c3cccs3)ccc2C#N)CC1`, which Potency is on record?
A: inconclusive: 22.4 µM [activator, single point]

Q: Which Potency does the source give for `O=C1NC(c2ccccc2Cl)=N/C1=C/c1ccco1` here?
A: inconclusive: 12.6 µM [activator, partial curve, poor fit]

Q: With `COc1ccccc1CNC(=O)CCn1c(=O)c2cccn2c2cccnc21` as the compound, how does the Potency read?
A: inactive

Q: With `CCOC(=O)C(=Cc1ccc(-c2ccsc2C(=O)OC)o1)C(=O)OCC` as the compound, how does the Potency read?
A: inconclusive: 12.6 µM [activator, single point]

Q: For `O=C(Nc1ncc2c(n1)-c1ccccc1CC2)c1cccs1`, which Potency is on record?
A: inconclusive: 3.16 µM [activator, partial curve, poor fit]

Q: With `CCOC(=O)c1sc(-c2cccs2)nc1C` as the compound, how does the Potency read?
A: inconclusive: 22.4 µM [activator, single point]

Q: For `O=C(CSc1nc2ccccc2n1Cc1ccccc1)N/N=C/c1ccco1`, which Potency is on record?
A: inconclusive: 4.47 µM [activator, partial curve, poor fit]

Q: For `O=c1nc2c(O)cccn2c2c1c(=O)[nH]c1ccccc12`, which Potency is on record?
A: active: 5.62 µM

Q: Which Potency does the source give for `Cc1ccc(C(=O)c2oc3ccccc3c2NC(=O)c2cc(-c3ccccc3O)n[nH]2)cc1` here?
A: inactive

Q: Which Potency does the source give for `COc1ccc(NC(=O)c2ccc([N+](=O)[O-])o2)cc1` here?
A: inconclusive: 4.47 µM [activator, single point]

Q: Which Potency does the source give for `CCOc1ccc(CN(C)C(=O)CCl)cc1` here?
A: inconclusive: 31.6 µM [activator, single point]

Q: For `COCCNC(=O)/C(C#N)=C/C=C/c1ccccc1[N+](=O)[O-]`, which Potency is on record?
A: inconclusive: 3.55 µM [activator, single point]

Q: Which Potency does the source give for `Cc1ccc(C(=O)C2CCN(C(=O)c3ccc(C)cc3)CC2)cc1` here?
A: inactive

Q: With `COc1cc(C(=O)O[C@H]2CC(C)=CC[C@@]3(C)CC[C@@](O)(C(C)C)[C@H]23)ccc1O` as the compound, how does the Potency read?
A: inactive

Q: Which Potency does the source give for `Nc1ccccc1SC(CC(=O)c1ccccc1)c1ccccc1` (stereo not drawn) here?
A: inconclusive: 20 µM [activator, single point]

Q: Which Potency does the source give for `CC(C)[C@H](NC(=O)OCc1ccccc1)C(=O)NC(C=O)Cc1ccccc1` (stereo partly drawn) here?
A: inactive

Q: For `Cc1oc(-c2cccc(Cl)c2)nc1CS(=O)(=O)CC(=O)NC1CCCC1`, which Potency is on record?
A: inactive

Q: With `COc1ccc2c(c1)NC(C)(C)C=C2C` as the compound, how does the Potency read?
A: inactive

Q: With `Cc1cc(-c2sccc2Br)nc(-n2cccc2)n1` as the compound, how does the Potency read?
A: inconclusive: 2.82 µM [activator, full curve, poor fit]

Q: With `CCOc1cc(/C=C\[N+](=O)[O-])ccc1OCC(=O)Nc1ccccc1C` as the compound, how does the Potency read?
A: inconclusive: 12.6 µM [activator, partial curve]

Q: For `COc1ccc(S(=O)(=O)N2CCCCCC2)cc1C(=O)NCc1ccco1`, which Potency is on record?
A: inconclusive: 6.31 µM [activator, partial curve, poor fit]

Q: Which Potency does the source give for `CCOc1cccc2cc(S(=O)(=O)c3ccccc3F)c(=O)oc12` here?
A: inconclusive: 11.2 µM [activator, partial curve, poor fit]
